# Measurements from PubChem BioAssay AID488969 (Vanderbilt High Throughput Screening Facility, 2010).
# In all, about 110,000 compounds were measured (“z-score”: median about -0.1, highest 2% from about 2 on). Some of the results follow.
# Molecular target: Metabotropic glutamate receptor 8 (Rattus norvegicus) (UniProt P70579)
# Test: rat mGluR8 modulators via GIRK flux, primary screen, cell-based, thallium flux, HTS (AID 488969)
# Conditions: HEK293 rat mGluR8, GIRK (G protein-gated inwardly rectifying potassium channel) thallium flux, FluoZin2; at 10 µM; stronger effect = higher value; submaximal glutamate (EC20) added with thallium
# Sequence of UniProt P70579 (P70579 whole entry, looked up): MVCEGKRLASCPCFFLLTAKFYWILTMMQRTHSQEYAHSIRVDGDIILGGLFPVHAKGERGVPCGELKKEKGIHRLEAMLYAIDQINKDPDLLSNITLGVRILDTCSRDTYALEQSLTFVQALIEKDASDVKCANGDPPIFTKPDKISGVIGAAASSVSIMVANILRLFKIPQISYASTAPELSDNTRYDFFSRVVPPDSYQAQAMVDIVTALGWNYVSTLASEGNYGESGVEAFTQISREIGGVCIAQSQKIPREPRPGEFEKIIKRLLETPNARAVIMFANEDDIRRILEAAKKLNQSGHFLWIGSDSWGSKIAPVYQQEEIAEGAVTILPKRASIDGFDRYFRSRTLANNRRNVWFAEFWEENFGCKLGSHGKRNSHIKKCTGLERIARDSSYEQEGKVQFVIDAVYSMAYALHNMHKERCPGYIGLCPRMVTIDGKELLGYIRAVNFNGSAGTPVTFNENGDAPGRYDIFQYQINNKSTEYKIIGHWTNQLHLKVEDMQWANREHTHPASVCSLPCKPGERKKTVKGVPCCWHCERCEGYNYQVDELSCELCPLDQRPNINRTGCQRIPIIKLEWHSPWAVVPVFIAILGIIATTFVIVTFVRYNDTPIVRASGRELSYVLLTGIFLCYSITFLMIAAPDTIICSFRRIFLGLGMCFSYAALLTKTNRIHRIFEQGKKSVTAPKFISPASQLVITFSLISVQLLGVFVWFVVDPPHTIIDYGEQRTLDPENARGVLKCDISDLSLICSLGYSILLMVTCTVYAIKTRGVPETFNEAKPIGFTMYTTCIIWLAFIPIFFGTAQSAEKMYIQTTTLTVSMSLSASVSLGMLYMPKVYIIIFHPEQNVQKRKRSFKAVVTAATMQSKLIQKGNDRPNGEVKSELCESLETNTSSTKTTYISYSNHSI
row,SMILES,z-score
1,O=C(CCNc1n[nH]c(=O)[nH]c1=O)N1CCOCC1,-0.44
2,CC1(C)COC(c2coc3ccccc3c2=O)OC1,0.437
3,CCOC(=O)c1sc(C)c2c(=O)n(CCc3ccccc3)nnc12,-0.606
4,COC(=O)c1cccc(S(=O)(=O)N(Cc2ccco2)Cc2cc3cc(OC)ccc3[nH]c2=O)c1,0.188
5,CCOc1ccc(C(=O)NC(=S)Nc2ncccc2C)cc1[N+](=O)[O-],-0.0354
6,O=C(Cn1c2ccccc2c(=O)c2ccccc21)N/N=C/c1cc([N+](=O)[O-])ccc1N1CCCCCC1,0.36
7,CC(NC(=O)C1CCCN(S(=O)(=O)c2cccs2)C1)c1ccccc1 (stereo not given),-0.404
8,CCOC(=O)/C(C#N)=C/c1cc(C)n(-c2ccc(C)cc2)c1C,-0.0145
9,O=C(NCCCN1CCCCCC1)C1CC(=O)N(CCc2ccccc2)C1 (stereo not given),0.503
10,CC(C)CN1C(=O)NC(NC(=O)c2ccco2)(C(F)(F)F)C1=O (stereo not given),0.0372
11,CCN(CC)C(C(=O)Nc1ccc(C(C)C)cc1)c1ccc2c(c1)OCO2 (stereo not given),0.483
12,O=C(O)c1cccc(NC(=O)C2CC(=O)N(Cc3ccccc3)C2)c1 (stereo not given),0.121
13,O=C(COC(=O)CCc1ccc(S(=O)(=O)N2CCOCC2)cc1)NC1CCCCCC1,-0.285
14,CCOc1ccc2cc(S(=O)(=O)N3CCOCC3)ccc2c1,-0.000556
15,O=C(Oc1ccccc1C(=O)N1CCOCC1)c1ccc(Br)cc1,-0.229
16,CCC(=O)NC(=S)Nc1cccc(NC(=O)CC)c1,0.095
17,O=C(Nc1ccc(Cl)cc1F)C1CC1,0.223
18,CC(=O)OC1COC(N2CCc3ccccc32)C(OC(C)=O)C1OC(C)=O (stereo not given),-0.185
19,CN(C)CCCN1C(=O)c2oc3ccc(Cl)cc3c(=O)c2C1c1cccnc1 (stereo not given),0.772
20,COc1ccc(C(=O)N2CCN(C3CCN(Cc4ccccc4)CC3)CC2)cc1OC,0.152
21,CCOC(=O)c1ccc2c(c1)nc(C)n2CC,-0.272
22,CCOC(=O)N1CCN(C(=O)C2CCCN(S(=O)(=O)c3cccnc3)C2)CC1 (stereo not given),-0.952
23,Cc1ccc(/C=C/C(=O)O)cc1S(=O)(=O)NCCCC(=O)O,-0.206
24,COc1ccc(C(=O)CSc2nnc(CCc3ccccc3)n2-c2ccccc2)cc1,-0.133
25,O=C(CCCC(=O)N(CC(=O)NC1CCCC1)Cc1ccccc1Cl)Nc1ccccn1,-0.251
26,CCOC(=O)C1=C(C)N(c2ccccc2)C(=O)/C1=C\c1cccs1,-0.246
27,O=C(Oc1ccccc1C(=O)N1CCOCC1)c1ccccc1,0.165
28,CC(C)(Oc1ccc(Cl)cc1)C(=O)OCn1nnc2ccccc2c1=O,0.136
29,Cc1cc(C)c2c(N)c(C(=O)Nc3nccs3)sc2n1,0.548
30,CNC(=O)C(=O)Nc1c(C)cc(C)cc1C,-0.0656
